In all, about 360,000 compounds went through this assay and about 7,500 (2.1%) were called active. The shares of active, inactive and inconclusive entries below differ from those in the screen. The call rests on the fitted dose curve; in most records, active means well fitted cell-killing curve with a large enough effect; inconclusive means small, poorly fitted or top-dose-only effect, or effect the other way, or another doubt; inactive means no such curve, though single readings can be large or run the other way. Potencies of inconclusive entries are left out as doubtful fits.
Test: qHTS for induction of synthetic lethality in tumor cells producing 2HG: qHTS for the HT-1080-IDH1KD cell line
Settings: HT-1080 IDH1 knockdown viability, ATP luminescence, 48 h; activity, negative = toxicity: at 46.1 µM (top of the series) unless noted
Excerpt: Unbiased genomic sequencing for 22 glioma genomes found recurrent mutation of IDH1 on chromosome 2q33, a gene encoding the cytosolic isoform of IIDH1 associated with the tri-carboxylic acid cycle (TCA) that catalyzes the oxidative decarboxylation of isocitrate, yielding alpha-ketoglutarate and CO2 via NADP+ to NADPH conversion. Subsequent studies confirmed the recurrent IDH mutations in up to 70% of secondary gliomas and in 10% of AML cases. In addition, the somatic mutation of cancer-associated IDH1 is a point mutation resulting in various amino-acid substituents at Arginine132 (IDH1 R132), a key residue found in the enzyme's active site that when mutated, results in the loss-of-function in metabolizing isocitrate but confers a gain-of-function to produce the oncometabolite 2-hydroxyglutarate (2HG). This in effect defines IDH1 as an oncogene and provides an extraordinary opportunity to discover chemical probes against mutant IDH1 that may translate into much needed new therapies for glioma and AML patients.
This assay aims to perform a synthetic-lethal screen for chemical probes specific for 2HG-producing tumor cells using matched paired cell lines (1) HT-1080-NT fibrosarcoma cell line that overproduces 2HG and (2) HT-1080-IDH1KD cell line which has IDH1 expression knocked-down. Desirable compounds are toxic to the NT fibrosarcoma cell line but not to the IDH1KD cell line. The data in this AID corresponds to the results of the qHTS against the HT-1080 IDH1KD cell line.
[1] Dang L, Jin S, Su SM. IDH mutations in glioma and acute myeloid leukemia. Trends of Mol Med. 2010; 16(9): 387-97.
[2] Dang L et al. Cancer-associated IDH1 mutations produce 2-hydroxyglutarate. Nature. 2010; 465(7300):966.
Molecular Libraries Probe Production Centers Network [MLPCN]
NIH Chemical Genomics Center [NCGC]
Assay Submitter (PI): Lenny Dang Ph.D., Agios Pharmaceuticals
Suspensions of trypsinized HT-1080-IDH1KD cells were dispensed into white, tissue culture-treated, solid 1536-well plates at 5uL/well (750 cells/well final concentration) in RPMI medium supplemented with 5% FBS. Plates were incubated at 37 degrees C for 2 hours, after which 23 nL of compounds or DMSO were delivered to each well using a pin tool. Plates were then incubated at 37 degrees C for an additional 48 hours. CellTiter-Glo viability reagent (Promega) was dispensed into wells (2.5uL/well) and incubated at room temperature for 10 minutes. The plates were measured on a PerkinElmer ViewLux plate reader for luminescent signal (clear filter, 1 sec exp.). DMSO-treated control wells and media-only (no cells) control wells were used to normalize %Activity of identified toxic compounds; DMSO-treated wells corresponded to 0%Activity (100% viability), while media-only controls were used to normalize 100%Activity (0% viability). To minimize variability between cell lines, both HT-1080-NT and HT-1080-IDH1KD lines were dispensed and treated with identical compound series in single batches.
Concentration-response curves were fitted to the signals arising from the resulting luminescence. The concentration-effect curves were then classified based on curve quality (r2), response magnitude and degree of measured activity, and compounds were subsequently categorized based on their curve class.
In the case of `O=C(N/N=C/c1c[nH]c2ccccc12)c1[nH]c2ccc(Br)cc2c1-c1ccccc1`, the Potency is reported as active: 6.51 µM.
In the case of `Cc1nn(Cc2ccc(Cl)c(Cl)c2)c(C)c1NC(=O)c1cc(-c2ccco2)on1`, the Potency is reported as inconclusive [cytotoxic, single point].
In the case of `O=C(C1CCN(S(=O)(=O)c2cccc3nsnc23)CC1)N1CC=C(c2ccccc2)CC1`, the Potency is reported as “inactive”.
With `Cc1[nH]n2c(=O)cc(-c3ccc([N+](=O)[O-])cc3)nc2c1-c1ccccc1` the Potency was active: 16.4 µM.
For `CCOC(=O)c1c(NC(=O)C(=O)N/N=C/c2ccccc2O)sc2c1CCCCC2`, the Potency was inconclusive [cytotoxic, single point].
For `O=S(=O)(NCc1ccccc1)c1cccc2cccnc12`, the Potency was “inactive”.
In the case of `CC(C)(C)CC(C)(C)NCC(O)COc1ccc2c(c1)CCC2` (centres undefined), the Potency is reported as inconclusive [cytotoxic, single point].
With `CCN(c1ccccc1)S(=O)(=O)c1ccc(C(=O)N(CCCN(C)C)c2nc3c(C)cccc3s2)cc1` the Potency was inconclusive [cytotoxic, single point].
With `CCOC(=O)c1c(CN(C)C)n(-c2ccccc2)c2cc(Br)c(O)cc12` the Potency was inconclusive [cytotoxic, partial curve].
In the case of `Cc1ccc(NC(=O)c2ccccc2OCc2ccc([N+](=O)[O-])cc2)nc1`, the Potency is reported as “inactive”.
In the case of `CC(C)C(=O)NC(=S)Nc1ccc(S(=O)(=O)NC(C)(C)C)cc1`, the Potency is reported as “inactive”.
With `Cc1ccc(S(=O)(=O)N2c3ccccc3OCC2c2ccccc2)cc1` (centres undefined) the Potency was inconclusive [cytotoxic, single point].
For `CCN(CC)Cc1c(O)ccc2c1O/C(=C\C=C\c1ccccc1)C2=O`, the Potency was inconclusive [cytotoxic, single point].
In the case of `CC(C)CC(NC(=O)C1CCCCC1)C(=O)N1CCN(c2ccccn2)CC1` (centres undefined), the Potency is reported as “inactive”.
For `O=C(Nc1cccc(O)c1)c1ccc(NC(=O)c2cccs2)cc1`, the Potency was inconclusive [cytotoxic, partial curve].
With `C/C(=N\Nc1ccc([N+](=O)[O-])cc1)c1ccc(O)cc1` the Potency was inconclusive [cytotoxic, partial curve].
In the case of `COc1ccc(CNC(=O)Nc2ccccc2)cc1`, the Potency is reported as “inactive”.
In the case of `O=C(CCc1nnc(-c2ccc3c(c2)OCO3)o1)NC(c1ccccn1)C(F)(F)F` (centres undefined), the Potency is reported as inconclusive [cytotoxic, partial curve].
In the case of `O=C(CS(=O)CC(=O)N(c1ccccc1)C(C(=O)NC1CCCCC1)c1ccco1)Nc1ccc(F)cc1` (centres undefined), the Potency is reported as inconclusive [cytotoxic, single point].
For `CC(C)(C)C(=O)Nc1ccc(C(=O)N/N=C/c2ccccc2OC(=O)c2ccccc2)cc1`, the Potency was inconclusive [cytotoxic, partial curve].
In the case of `CCCCCOC(=O)c1[nH]c2c(c1C)C(=O)CC(c1ccco1)C2` (centres undefined), the Potency is reported as active: 0.0164 µM.
In the case of `COc1cccc(CNc2ccc(N3CCC(C)CC3)cc2)c1OC`, the Potency is reported as inconclusive [cytotoxic, single point].
With `C/C(=N\Nc1nnc(C)c(=O)[nH]1)C(=O)O` the activity, negative = toxicity was inconclusive: -76.7%.
In the case of `COc1cc(OC)cc(C(=O)Nc2ccc(NC(=O)c3ccco3)c(Cl)c2)c1`, the Potency is reported as inconclusive [cytotoxic, single point].
With `CC(=O)Nc1cc(-c2ccc(F)cc2)cn2c(-c3ccc(F)cc3)cnc12` the Potency was inconclusive [cytotoxic, single point].
With `CSc1ccc(-c2nc3cnccn3c2Nc2ccc3c(c2)OCO3)cc1` the Potency was inconclusive [cytotoxic, single point].
With `CCn1c(C)nc2cc(-c3nc4n(n3)Cc3ccccc3-4)ccc21` the Potency was active: 1.84 µM.
With `CC(=O)c1cccc(-c2cnc3c(NC=O)cc(-c4ccccc4Oc4ccccc4)cn23)c1` the Potency was inconclusive [cytotoxic, single point].
For `CCC(=O)N1c2ccc(S(=O)(=O)N3CCN(c4cc(C)ccc4C)CC3)cc2CC1C` (centres undefined), the Potency was “inactive”.
For `COc1ccc(Cc2nnc(Nc3ccc(C)cc3)o2)cc1OC`, the Potency was inconclusive [cytotoxic, single point].
For `Cc1nc2ccccc2c2oc(C(=O)N3CCC(N4CCCCC4)CC3)cc12`, the Potency was “inactive”.
With `CC(C)CN(CC(C)C)C(=S)Nc1ccc(Cl)cc1` the Potency was inconclusive [cytotoxic, single point].
With `COc1ccc(C(=O)O/N=C(\N)c2ccccc2Cl)cc1OC` the Potency was inconclusive [cytotoxic, single point].
With `Cc1ccc(NC(=S)Nc2ccccn2)cc1C` the Potency was “inactive”.
In the case of `CC(c1ccccc1)N1C(=O)c2ccccc2C1(O)Cc1ccccc1` (centres undefined), the Potency is reported as inconclusive [cytotoxic, single point].
With `CC(=O)Nc1ccc2nc(SCC(=O)NCCOc3ccccc3)sc2c1` the Potency was “inactive”.
With `CN1CCC(n2[nH]c(-c3ccccc3)c(Cc3ccccc3)c2=O)CC1` the Potency was inconclusive [cytotoxic, single point].
With `O=C(CCS(=O)(=O)c1ccccc1)Nc1nncs1` the Potency was inconclusive [cytotoxic, partial curve].
For `Cc1[nH]n(-c2ccccc2)c(=O)c1/C=N/NC(=O)COc1ccccc1[N+](=O)[O-]`, the Potency was inconclusive [cytotoxic, single point].
In the case of `O=C(NC1CCN(Cc2ccccc2)CC1)c1cc(S(=O)(=O)Nc2ccc(F)cc2)ccc1Cl`, the Potency is reported as “inactive”.
For `CCCCCCCCCc1nc2sc3c(c2c(=O)n1NC(=O)c1ccccc1[N+](=O)[O-])CC(C)(C)OC3`, the Potency was inconclusive [cytotoxic, single point].
With `CSc1cccc(NC(=O)C2CCCN(S(=O)(=O)c3ccc(F)cc3)C2)c1` (centres undefined) the Potency was inconclusive [cytotoxic, partial curve].
In the case of `Cc1ccccc1OCC(=O)N/N=C/c1ccc(N(C)C)cc1`, the Potency is reported as inconclusive [cytotoxic, single point].
For `Cc1ccc(O)c(NC(=S)NC(=O)c2ccc(-c3ccc(Cl)cc3)o2)c1`, the Potency was inconclusive [cytotoxic, single point].
For `N/C(=N\OC(=O)CC1CCCCC1)c1ccccc1`, the Potency was inconclusive [rising, partial curve, poor fit].
With `O=C(NCC(c1ccco1)N1CCc2ccccc2C1)c1ccc(Cl)c([N+](=O)[O-])c1` (centres undefined) the Potency was “inactive”.
For `CC(=O)Nc1ccc(C(C#N)=Cc2ccc(N(C)CCC#N)cc2)cc1`, the Potency was “inactive”.
For `O=C1ON=C(c2cccc([N+](=O)[O-])c2)/C1=C/c1ccc(O)cc1`, the Potency was inconclusive [cytotoxic, single point].
In the case of `Cc1ccc(CCNC(=O)C2CCCN(c3ncnc4c3nc3n4CCCCC3)C2)cc1` (centres undefined), the Potency is reported as “inactive”.
With `Cc1ccc(C(O)c2ncc(-c3ccc4ccccc4c3)[nH]2)c(C)c1` (centres undefined) the Potency was “inactive”.
For `NNC(=O)/C(=C\c1ccco1)NC(=O)c1ccco1`, the Potency was inconclusive [cytotoxic, single point].
In the case of `COC(=O)c1c(C)oc2ccc(N(C(=O)c3ccncc3)S(=O)(=O)c3ccc4ccccc4c3)cc12`, the Potency is reported as inconclusive [cytotoxic, single point].
In the case of `COC(=O)C1=C(O)CSC1=Nc1ccc(C)cc1`, the activity, negative = toxicity is reported as inconclusive: 31.4%.
With `Cc1ccc(OCCCCN(C)Cc2ccccc2)c(Br)c1` the Potency was inconclusive [cytotoxic, partial curve].
In the case of `Fc1ccccc1NC(=S)NN(Cc1ccccc1)c1ccccc1`, the Potency is reported as inconclusive [cytotoxic, single point].
For `COc1ccc(CCNC(=O)COc2ccc(S(=O)(=O)NC(C)C)cc2Cl)cc1OC`, the Potency was active: 11.2 µM.
In the case of `O=C(C1=C[C@@H](C2CCCCC2)C[C@@H](OCc2ccc(CO)cc2)O1)N1CCN(Cc2ccccc2)CC1`, the Potency is reported as inconclusive [cytotoxic, single point].
In the case of `COC(=O)[C@@]1(Cc2ccc(F)cc2)[C@H]2c3cc(C(=O)N4CCCC4)n(Cc4ccc(OC(F)(F)F)cc4)c3C[C@H]2CN1C(=O)c1ccccc1`, the Potency is reported as active: 23.1 µM.
In the case of `Cc1noc(C)c1COc1ccccc1C(=O)N1CCN(c2cccc(C(F)(F)F)c2)CC1`, the Potency is reported as inconclusive [cytotoxic, partial curve].
For `Cc1ccn(-c2ccc(NC(=O)c3cccs3)cc2)n1`, the Potency was inconclusive [cytotoxic, partial curve].
With `CC(NC(=O)c1ccc(CS(C)(=O)=O)cc1)c1cccc2ccccc12` (centres undefined) the Potency was “inactive”.
For `Cc1ccc(-c2csc(NC(=O)C[n+]3cc(-c4ccc(C)cc4)n4c3CCC4)n2)cc1`, the Potency was active: 16.4 µM.
In the case of `CCOC(=O)c1c(C)[nH]c(C(=O)CSc2nnc(-c3ccncc3)n2CC)c1C`, the Potency is reported as inconclusive [cytotoxic, single point].
For `CCOC(=O)c1ccc(NC(=S)NCc2cccnc2)cc1`, the Potency was inconclusive [cytotoxic, single point].
In the case of `COc1cc2c(cc1NC(=O)Nc1ccc(F)cc1)oc1ccccc12`, the Potency is reported as “inactive”.
In the case of `CC(Oc1ccc2ccc(=O)oc2c1)C(=O)c1ccccc1` (centres undefined), the Potency is reported as “inactive”.
In the case of `COc1ccc(NC(=O)C2(C)Cc3c(-c4ccc5c(c4)OCO5)ccnc3O2)cn1` (centres undefined), the Potency is reported as active: 2.91 µM.
For `O=S(=O)(c1ccc(-c2csc(Nc3ccc(Br)cc3)n2)cc1)N1CCCC1`, the Potency was inconclusive [cytotoxic, partial curve].
In the case of `CCCCCCCCN1C(=O)[C@H](CC(=O)NCc2ccccc2)C[C@@]2(C(=O)OC)CCCCC=C12`, the Potency is reported as inconclusive [cytotoxic, single point].

Reference: PubChem BioAssay AID686971 (National Center for Advancing Translational Sciences (NCATS), 2013)
Potency means the concentration at half of the fitted maximal effect; tags describe the fitted curve by direction and shape.
